# Test results: PubChem BioAssay AID651820 (National Center for Advancing Translational Sciences (NCATS), 2012)
# Values joined by “and” are separate entries in the source; they are usually repeats but may differ in a detail not shown here. Identical values can stand only once. Hit rate of the full screen: of about 340,000 compounds, about 12,000 (3.5%) were called active. Inconclusive means that the source gave no clear call. Such entries were picked first, then a sample of the others. Calls follow the shape of the dose curve; as a rule, active = well fitted inhibition curve with a large enough effect; inconclusive = small, poorly fitted or top-dose-only effect, or another doubt; inactive = no such curve, though single readings can be large or run the other way. Where the call is inconclusive, the potency comes from a doubtful curve fit.
# Test: qHTS Assay for Inhibitors of Hepatitis C Virus (HCV)
# Conditions: Huh7.5.1 HCVcc-Cre (HCVcc is cell-culture hepatitis C virus) infection, luciferase reporter, 44 h; series mostly up to 41.8 µM
# Procedure, shortened: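 Antiviral activity was scored by luciferase reporter output from cells infected with HCVcc-Cre (~0.5 moi) in presence of compound, 44 h infection period, cells seeded 1,000/well 4 h prior.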
# Potency is read from the fitted curve at half-maximal effect; tags tell the direction and shape of the fitted curve.
row,Compound,Potency
1,CCOC(=O)N1CCN(C(=O)Nc2ccc(Cl)cc2Cl)CC1,"inconclusive: 3.16 µM [inhibitor, full curve]"
2,COc1ccc(NC(=O)CN(C)C(=O)/C=C/c2ccc(OCc3ccccc3)cc2)cc1,"inconclusive: 3.55 µM [inhibitor, partial curve, poor fit]"
3,C=C1C(=O)OC2C=C(CO)CCC=C(CO)CC(OC(=O)C(C)C)C12 (stereo not given),"inconclusive: 14.1 µM [inhibitor, single point]"
4,CCOc1ccc(C(C)=O)cc1CSc1nnc(-c2cccs2)n1CC1CCCO1 (stereo not given),inactive
5,Cc1ccc2c(CSc3nc4ccccc4c(=O)n3CCCO)cc(=O)oc2c1C,"inconclusive: 31.6 µM [inhibitor, single point]"
6,Cc1ccccc1C(OCCN(C)C)c1ccccc1 (stereo not given),"inconclusive: 20 µM [inhibitor, partial curve, poor fit] and inconclusive: 10 µM [inhibitor, single point] and inconclusive: 11.2 µM [inhibitor, single point]"
7,COc1ccc(N(Cc2ccccc2)S(=O)(=O)c2cccc(C(=O)Nc3ccccn3)c2)cc1,"inconclusive: 12.6 µM [inhibitor, single point]"
8,OCC1(Cc2ccc(F)cc2F)CCCN(Cc2ccc(Cl)cc2)C1 (stereo not given),"inconclusive: 22.4 µM [inhibitor, single point]"
9,Clc1ccc(Cn2ncc3c(NCc4ccccc4)ncnc32)cc1,"inconclusive: 2.24 µM [inhibitor, full curve]"
10,Cc1nc2ccccc2n1CC(=O)N1CC(=O)Nc2ccccc21,inactive
11,Nc1c(C(=O)Nc2ccc3c(c2)OCCO3)nnn1Cc1ccccc1,"inconclusive: 7.94 µM [inhibitor, partial curve]"
12,CCOC(=O)Cn1c(=NC(=O)c2cc(-c3cccs3)nc3ccccc23)sc2cc(S(N)(=O)=O)ccc21,inactive
13,CC(C)Oc1ccc(Br)cc1C(=O)N/N=C/c1c[nH]c2ccccc12,active: 10 µM
14,O=C(NC(=S)Nc1ccc(S(=O)(=O)N2CCCC2)cc1)c1cccs1,inactive
15,CCN(c1ccccc1)S(=O)(=O)c1cc(C(=O)Nc2cccc(Cl)c2)ccc1F,"inconclusive: 10 µM [inhibitor, partial curve]"
16,Nc1nc(C(F)(F)F)cc(=O)[nH]1,inactive
17,CCc1ccc2[nH]c(=O)c(C(c3nnnn3CC3CCCO3)N3CCCc4ccccc43)cc2c1 (stereo not given),inactive
18,CCC(=O)c1ccc(OCC(=O)Nc2cc(S(=O)(=O)N3CCCCC3)ccc2N2CCN(CC)CC2)cc1,"inconclusive: 14.1 µM [inhibitor, single point]"
19,CC(=C/c1ccccc1)/C=C1/SC(N2CCOCC2)=NC1=O,"inconclusive: 22.4 µM [inhibitor, single point]"
20,Cc1cc(C)cc(OCC(=O)NC2CCCc3ccccc32)c1 (stereo not given),"inconclusive: 31.6 µM [inhibitor, single point]"
21,CN(C)C(=O)CCc1ccc2c3c([nH]c2c1)[C@]1(CCc2ccccc2)[C@@H](C(=O)N2CCCCC2)C[C@H](CC(=O)NC(C)(C)C)C(=O)N1CC3,"inconclusive: 5.62 µM [inhibitor, single point]"
22,O=C(O)c1cc(-c2cccs2)nn1-c1cccc(Cl)c1,inactive
23,CCN(CC)S(=O)(=O)c1ccc2c(c1)nc(CCC(=O)O)n2CC,inactive
24,COc1ccc(N2CCN(C(=O)CCc3ccccc3OC)CC2)cc1,inactive

row,Compound,Potency
1,COc1ccc(Nc2nc(C)nc3c2oc2ccccc23)c(OC)c1,"inconclusive: 15.8 µM [inhibitor, single point]"
2,COc1ccc(NS(=O)(=O)c2cc(NC(=O)c3ccc(F)cc3)ccc2OC)cc1,"inconclusive: 31.6 µM [inhibitor, partial curve, poor fit]"
3,CCn1c(SCC(=O)Nc2ccc(C)cc2)nc2nc3c(cc2c1=O)CCCC3,"inconclusive: 31.6 µM [inhibitor, single point]"
4,CSc1ccc2c(c1)C(N1CCN(C)CC1)Cc1ccc(F)cc1S2 (stereo not given),"inconclusive: 31.6 µM [inhibitor, single point]"
5,O=c1c2c3nc4ccccc4nc3n(/N=C/c3ccco3)c2ncn1CCC1=CCCCC1,"inconclusive: 12.6 µM [inhibitor, single point]"
6,O=C(NCCCCc1ccccc1)c1cccc(NC(=O)c2ccccc2)c1,inactive
7,C=CCN(c1ccccc1)S(=O)(=O)c1ccc2c(c1)NC(=O)C(C)S2 (stereo not given),inactive
8,Cn1c(=O)c(C(=O)CCl)c(N)n(Cc2ccccc2)c1=O,"inconclusive: 15.8 µM [inhibitor, partial curve]"
9,O=C(Oc1ccc(OC(=O)c2ccco2)c(S(=O)(=O)c2ccc(Br)cc2)c1)c1ccco1,inactive
10,CC(=O)c1ccc(N(C(=O)c2csnn2)C(C(=O)NC2CCCC2)c2ccccc2)cc1 (stereo not given),"inconclusive: 31.6 µM [inhibitor, single point]"
11,O=C(NCC1CCCO1)/C(=C/c1cn(-c2ccccc2)nc1-c1cccnc1)NC(=O)c1ccccc1 (stereo not given),inactive
12,Cc1ccccc1C(=O)NC(=S)Nc1ccc(N2CCOCC2)cc1,inactive
13,C=C1CCC2C(C)(C)[C@@H](O)CC[C@@]2(C)[C@@H]1COc1ccc2ccc(=O)oc2c1 (stereo not given in full),"inconclusive: 31.6 µM [inhibitor, single point]"
14,Cc1ccc(S(=O)(=O)c2nc(Nc3ccccc3)sc2Cl)cc1,active: 11.2 µM
15,CCC(C)c1ccc(NC(=O)C2CCCN(c3ncccn3)C2)cc1 (stereo not given),"inconclusive: 31.6 µM [inhibitor, single point]"
16,CCOC(=O)c1c(-c2ccc(C)o2)csc1NC(=O)COC(=O)c1cccs1,"inconclusive: 22.4 µM [inhibitor, single point]"
17,CN(C)CCCNS(=O)(=O)c1ccc(NC2CCCCCC2)c([N+](=O)[O-])c1,active: 5.62 µM
18,CN(C)S(=O)(=O)N1CCC(Oc2cccc(C(=O)N3CCCCCC3)c2)CC1,"inconclusive: 14.1 µM [inhibitor, partial curve]"
19,COc1cc(N2CCOCC2)ccc1C=C(C#N)C#N,inactive
20,Cc1cc(C)c2nc(N3CCN(C(=O)c4cccs4)CC3)sc2c1,"inconclusive: 31.6 µM [inhibitor, single point]"
21,O=S(=O)(NCCc1ccc(Cl)cc1)c1cccc2cccnc12,inactive
22,Cc1csc(N/N=C/c2ccccc2F)n1,"inconclusive: 25.1 µM [inhibitor, single point]"
23,Cc1ccccc1SCC(=O)Nc1cc(S(=O)(=O)N2CCOCC2)ccc1N1CCOCC1,inactive
24,COC(=O)C1=C(C)NC(C)=C(C(=O)OCCN(C)Cc2ccccc2)C1c1cccc([N+](=O)[O-])c1 (stereo not given),inactive

row,Compound,Potency
1,COc1ccc(N2CCN(C(=O)c3ccc(Cl)c(S(=O)(=O)N4CCCC4)c3)CC2)cc1,"inconclusive: 22.4 µM [inhibitor, single point]"
2,CCOC(=O)C1=C(CNCc2ccc(C)cc2)NC(=O)NC1c1cc(C)ccc1C (stereo not given),inactive
3,Cc1ccc(C(=O)O/N=C(\N)Cc2cccs2)cc1[N+](=O)[O-],inactive
4,CC(=O)N1CCC(=NNc2ccnc3cc(Cl)ccc23)CC1,inactive
5,CCOC(=O)/C(C#N)=C/Nc1ccsc1C(C)=O,inactive
6,Cc1ccc(OCC(=O)Nc2ccc3c(c2)ncn3C)cc1,inactive
7,S=C(NCCc1ccccc1)N1CCn2cccc2C1c1cccnc1 (stereo not given),"inconclusive: 11.2 µM [inhibitor, single point]"
8,COc1ccc(CCNC(=O)c2cc(-c3cc(Cl)cc(Cl)c3)oc2C)cc1,"inconclusive: 11.2 µM [inhibitor, partial curve]"
9,CC(NCC(O)COc1ccc2ccccc2c1)c1ccccc1 (stereo not given),active: 6.31 µM
10,COC(=O)CCn1nc(-c2ccc(Cl)cc2)c2ccccc2c1=O,"inconclusive: 31.6 µM [inhibitor, single point]"
11,O=C(Cn1[nH]c(=O)c2ccccc2c1=O)NC1CCN(Cc2ccccc2)CC1,"inconclusive: 22.4 µM [inhibitor, single point]"
12,COc1ccc(C(=S)N2CCN(c3ccccc3C)CC2)cc1,"inconclusive: 22.4 µM [inhibitor, single point]"
13,O=C(COc1ccccc1F)Nc1ccccc1C(=O)NC1CC1,"inconclusive: 10 µM [inhibitor, partial curve]"
14,COc1cc(C(C)=O)ccc1Oc1ncnc2c1cnn2-c1ccc(C)c(C)c1,"inconclusive: 3.16 µM [inhibitor, partial curve, poor fit]"
15,O=c1oc(CCO)cc2ccc(-c3ccc4[nH]ccc4c3)cc12,"inconclusive: 31.6 µM [inhibitor, single point]"
16,O=C(CSc1nnc(C2CC2)n1Cc1ccccc1)NCc1ccccc1,inactive
17,Cc1ccc(N(Cc2ccccc2)C(=O)c2cc(S(=O)(=O)N3CCOCC3)ccc2N2CCCC2)cc1,"inconclusive: 31.6 µM [inhibitor, single point]"
18,COC(=O)c1cc(OC)c(OC)cc1NC(=S)N1CCN(C/C=C/c2ccccc2)CC1,"inconclusive: 31.6 µM [inhibitor, single point]"
19,CC(=O)SC1CC2=CC(=O)CCC2(C)C2CCC3(C)C(CCC34CCC(=O)O4)C12 (stereo not given),"inconclusive: 11.2 µM [inhibitor, partial curve]"
20,COc1ccc(N/C=C/C(=O)c2ccc(C)cc2)c([N+](=O)[O-])c1,inactive
21,COc1ccc(Nc2nnc(SCC(=O)c3cc4ccccc4o3)s2)cc1,"inconclusive: 22.4 µM [inhibitor, single point]"
22,CC(=O)c1cccc(S(=O)(=O)Nc2cccnc2)c1,inactive
